# Data as given in the supplement of paper PMC3334620.
# In all, about 33,000 sequences were measured (“E-score (-0.5 to 0.5)”: median about -0.035, highest 2% from about 0.35 on). The list shows a part of the results.
# Biological target: T1, Pdr3 (UniProt P33200)
# T1 sequence: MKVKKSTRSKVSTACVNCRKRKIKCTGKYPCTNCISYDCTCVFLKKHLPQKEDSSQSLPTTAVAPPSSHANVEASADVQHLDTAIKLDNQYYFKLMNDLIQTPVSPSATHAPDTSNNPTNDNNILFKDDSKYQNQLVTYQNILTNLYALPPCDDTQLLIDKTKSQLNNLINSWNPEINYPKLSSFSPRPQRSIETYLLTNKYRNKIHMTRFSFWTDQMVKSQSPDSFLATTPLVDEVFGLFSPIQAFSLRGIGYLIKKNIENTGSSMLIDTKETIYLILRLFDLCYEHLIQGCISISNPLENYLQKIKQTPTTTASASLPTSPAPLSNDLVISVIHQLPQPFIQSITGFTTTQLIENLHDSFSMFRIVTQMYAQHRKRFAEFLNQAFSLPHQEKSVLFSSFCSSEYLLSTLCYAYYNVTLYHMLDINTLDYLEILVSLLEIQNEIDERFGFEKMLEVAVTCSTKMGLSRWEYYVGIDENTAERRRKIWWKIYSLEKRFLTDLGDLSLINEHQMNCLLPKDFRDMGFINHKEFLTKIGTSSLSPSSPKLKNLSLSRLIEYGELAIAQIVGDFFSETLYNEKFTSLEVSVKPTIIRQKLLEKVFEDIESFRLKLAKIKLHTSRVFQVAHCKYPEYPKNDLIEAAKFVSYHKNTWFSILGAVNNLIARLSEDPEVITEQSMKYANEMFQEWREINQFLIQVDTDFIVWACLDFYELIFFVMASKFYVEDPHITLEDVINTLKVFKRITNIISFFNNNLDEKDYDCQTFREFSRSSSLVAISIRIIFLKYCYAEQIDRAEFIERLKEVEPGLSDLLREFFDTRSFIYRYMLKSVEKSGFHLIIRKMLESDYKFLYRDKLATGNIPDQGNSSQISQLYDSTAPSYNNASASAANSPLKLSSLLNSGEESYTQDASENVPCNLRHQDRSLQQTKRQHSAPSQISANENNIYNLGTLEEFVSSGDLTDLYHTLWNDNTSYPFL
# Test: PBM E-score (8-mer binding enrichment) (E-score (-0.5 to 0.5)); higher = stronger / more preferred TF binding; most listed sequences are background and not binding sites
# Conditions: protein concentration: 200 nM; construct: GST-full length
# How it was run: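 GST-tagged yeast TFs (full-length or DNA-binding domain) were made by PURExpress in vitro transcription/translation and applied at about 100-200 nM to universal all-10-mer Agilent arrays. The arrays were made double-stranded by primer extension, on fresh or once-stripped slides. Bound protein was detected with fluorescent anti-GST, and scans were normalised with masliner. Each ungapped eight-base word, pooled with its reverse complement, received an E-score (modified Wilcoxon-Mann-Whitney statistic) from the Universal PBM Analysis Suite.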
row,Sequence,PBM E-score
1,AATAGGAG,-0.28
2,GACGCAGC,-0.143
3,AGAAGCGC,0.136
4,AATTGAAG,-0.0227
5,ACTAGGAG,-0.0988
6,AATAAGTA,-0.119
7,AGATTTGA,-0.0183
8,GCGCCCTA,0.00749
9,ATCTTTCA,-0.0345
10,AGTCTTGC,-0.285
11,AGTCCAAC,-0.126
12,GGGGTTCA,-0.00336
13,ACAAGCAC,-0.021
14,GTGTACGA,0.108
15,AAAAAGTG,-0.143
16,CCGGTCGC,0.147
17,GCCCAGAC,-0.222
18,CCTGAAAA,-0.19
19,ATAGTGAT,-0.0665
20,AGGAAAGC,-0.105
21,ACTAAAGT,-0.266
22,CGACAATC,0.134
23,CCCCGTCA,0.156
24,ACCCCTAG,-0.227
25,ACGTATAA,-0.0601

row,Sequence,PBM E-score
1,ATTCCAGC,0.0377
2,AGTCTTCC,0.0793
3,CGGATGCA,0.251
4,GGTGAGAC,-0.0909
5,GAATTTGC,0.189
6,CTTGAAGC,-0.316
7,GAACTCAC,0.00045
8,ATAGGCGC,0.0918
9,CCCGGACC,0.334
10,CACCGTGC,-0.00069
11,ATGTTCCC,0.153
12,AACTGCAA,0.0196
13,CTACGAAA,-0.209
14,CATAAAGA,-0.154
15,AGCACCAC,-0.201
16,TCAGTACA,-0.0655
17,GCCGTGCC,0.15
18,AATACCGT,0.102
19,CTCTGACA,-0.0595
20,CAAAGTGA,0.0162
21,CAACCCCA,0.118
22,CAGACACC,-0.0625
23,AGTTTGAT,0.0669
24,CTAGTCCA,-0.137
25,CCCGACCG,0.196

row,Sequence,PBM E-score
1,GAATCGGA,0.36
2,GGCAACGA,0.182
3,ACGATACG,-0.245
4,CGGTCTCC,0.196
5,CGAAGGGA,0.0663
6,ATAAAGGC,-0.187
7,ACCCGTAC,0.157
8,AGAACTCA,0.00923
9,CGGGTCTA,0.217
10,AGTAGTGG,-0.0108
11,ACTGACCC,-0.0589
12,AGGCGGGC,0.0717
13,ACATGTCA,-0.00956
14,AATTAGAA,-0.0324
15,TAGGATCA,-0.111
16,AACGCGAG,-0.0051
17,GACACTTA,0.0287
18,GCTGCAGA,-0.107
19,AAACACTT,-0.108
20,ATGTCAAA,-0.0576
21,GCCCCGGA,0.41
22,GCAACCCA,-0.0626
23,ACACGCAA,-0.0679
24,GGCGCACC,0.133
25,CCAAACCA,-0.0558

row,Sequence,PBM E-score
1,AGACGTAT,-0.154
2,AGTGATCA,-0.0706
3,GTTATTAA,0.0473
4,AACTGCAG,-0.159
5,ATTCTAAA,0.0184
6,CCAGCCGC,0.35
7,CCATTGAC,-0.199
8,AGATTAAA,0.183
9,TCCGTTCA,0.353
10,AGAGTACG,-0.0785
11,GAGGGACA,-0.0466
12,ATGTTAAT,-0.0377
13,ATCGGAGC,0.275
14,ATAAGGGA,-0.102
15,AACGTAAT,-0.159
16,AGGCTCGC,0.0639
17,CGAAGGAA,-0.0133
18,AGGCGCCG,0.161
19,AGTGTTAC,0.0571
20,ACCGCATG,-0.085
21,ACGCTTGA,-0.181
22,CCGCAGCA,0.196
23,ATTACCTG,-0.106
24,CTTTTAAA,-0.00725
25,AAGGCCGT,0.094

row,Sequence,PBM E-score
1,CATGCTCG,-0.0998
2,CAAAGGGC,-0.078
3,ATGGGACG,-0.0293
4,AAATGGCA,0.0484
5,GTAGTATA,0.061
6,AAGGCTTA,-0.249
7,ATGGACCA,-0.158
8,AATCTAAT,-0.14
9,CGGCGGAA,0.456
10,GTGTGTTA,0.0563
11,ATCCGTGC,0.267
12,CGCGCAAC,0.195
13,AAATGGGG,-0.208
14,CCACGTTA,-0.079
15,ATAGGACA,-0.221
16,ACTATCCA,-0.0237
17,CTAGAGTA,-0.165
18,ATCAATAG,-0.229
19,CTCCCTCA,-0.227
20,AACCCTTC,0.0652
21,AATTCGTC,0.042
22,ACACCAGT,-0.19
23,AGAACCCA,-0.176
24,GCCCTGGA,0.0153
25,CCCGATGC,0.116

row,Sequence,PBM E-score
1,ACACAAAC,-0.035
2,GCACTGAC,-0.0877
3,GAGGACCA,-0.0704
4,GGCTATGA,-0.103
5,TATTTGGA,-0.317
6,CATAGGAA,-0.0996
7,CCCAGACA,-0.15
8,CCACGAGA,-0.11
9,AGTCCTCC,-0.11
10,TCTTTTAA,-0.18
11,CTCTCCAA,0.033
12,ATGGCACA,-0.0134
13,CCGTTGAG,0.178
14,AGTTGGGC,0.0446
15,GGTTTTTA,-0.113
16,GACCGAAA,0.0936
17,ACCGTAAG,1e-05
18,AAGTCTCG,-0.0989
19,CAAAAGTA,-0.0314
20,ACTAACTA,-0.159
21,CCGGAGGA,0.347
22,ATGGGCTA,0.0294
23,ACACGGCC,0.14
24,CCAACCAA,-0.0996
25,CGCTGAGC,-0.045

row,Sequence,PBM E-score
1,CCTACGAC,-0.217
2,TCGTAAAA,-0.0331
3,CTATGGCA,-0.222
4,TCATGCCA,-0.17
5,CAGCCCTC,-0.138
6,AGGCGGTG,-0.127
7,ACTAGCCG,0.105
8,CCTCTGCA,-0.0558
9,AAGGGTCG,-0.0133
10,GTAGTGAC,0.0971
11,CGCATCCA,-0.0631
12,AGGCATTA,-0.12
13,CATCGACG,0.0551
14,GGCTGTAA,-0.226
15,CGGGGTCC,0.189
16,GCTCGATA,-0.00112
17,AGATCTCA,0.0197
18,GAGAACGA,0.0602
19,AAACAACA,-0.149
20,CGATTATC,0.0984
21,ACGCCACC,-0.184
22,ATAATTTG,0.107
